Measured values: the RNAGym collection of RNA variant scans (doi:10.7554/elife.90254)
The source gives no read counts; variants with many changes may rest on few reads.

B1: LINE1-mini (parent)
chain: GGCAGAGCUCAACACAGCGUGGCAAAGUGGCUGUGGCUAGACUGCC

Variants of: B1
Assay: self-cleavage, relative activity (ratio to wild type); higher = more cleavage; in vitro, sequencing; the parent is a self-cleaving ribozyme

Q: Which self-cleavage does the source give for GGCACAGCUCAACAGAGCGUGGCAAAGUGCCUGUGGCUAGACUGCC here?
A: 0.02

Q: For GGCAGAGCUCAAUACAGCGUGGCACAGUGGCUGUUGCUAGAAUGCC, which self-cleavage is on record?
A: 0.03

Q: For GGCAGAGCUCAACACAGCGUAACAAUGUGGCUGUGGCUAGACUGCC, which self-cleavage is on record?
A: 1.39

Q: With GGCAUAGCUCAACCCAGCGUGGCAAAUUGGCUGUGGCUAGACUGCC as the variant, how does the self-cleavage read?
A: 0.16

Q: With GUCAGAGCUCAACACAGCGUGGCAAAGUGGCUGUGGCUAGUCUCCC as the variant, how does the self-cleavage read?
A: 0.09

Q: Which self-cleavage does the source give for GGCAUAGCUCAACACAGCGUGGCAAAGUGGCGGUGGCUAGACUGCG here?
A: 0.04

Q: Which self-cleavage does the source give for GGGAGAGCGCAACACAGCGUGGCAAAGUGGUUGUGGCUUGACUGAC here?
A: 0.02

Q: Which self-cleavage does the source give for GGCAGAGCUCAACACUGCGUGGCAAAGUGAUUGUGGCUAGACUGCC here?
A: 0.01

Q: For GGCAGAGGUCUACACAGCAUGGCAAAGUGGCUGUGGCUAGACUGCC, which self-cleavage is on record?
A: 0.01

Q: For GGCAGAUCUCAACACAGGGUGGCGUAGUGGCUGUGGCUAGACUGCC, which self-cleavage is on record?
A: 0.06

Q: With GGCAGAGCUCAGCAGGGCGUGGCAAAGUGGCUGUGGCUAGACUGCC as the variant, how does the self-cleavage read?
A: 0.4

Q: With GUCAGAGCUCAACACAGCGUGGCAGAAUGGUUGUGGCUAGACUGCC as the variant, how does the self-cleavage read?
A: 0.04

Q: With GGCAGUGCGCAACACAGCGUGCGAAAGUGGCUGUGGUUAGACUGCC as the variant, how does the self-cleavage read?
A: 0.03

Q: Which self-cleavage does the source give for GGAAGAGCUCAACACAGCGUGUCAAAGUAGCUGUGGCUAUACUGCC here?
A: 0.08

Q: Which self-cleavage does the source give for GGCAGACCACAACACAGGGUGGCAAAGUGGCUGUGGCUAGACUGCC here?
A: 0.02

Q: With GAAAGUGCUAAACACAACUUGGCAAAGUGGCUGUGGCUAGACUGCC as the variant, how does the self-cleavage read?
A: 0.09

Q: For GGGAGAGCUCAACACUGCGUGGCUAACUGACUGUGGCUAGACUGCC, which self-cleavage is on record?
A: 0.06

Q: Which self-cleavage does the source give for GGCAGAGCUCAACACAGCGUGGCAAAGUUGCUGUGCCUAGGCUGCG here?
A: 0.04

Q: Which self-cleavage does the source give for GGCAUAUCUCAACACAGCGGGGCAAAGUGGCUGUGGCUAGACUGCC here?
A: 0.23

Q: With GGCAGAGCUCAAGACAGCGUGGCAAAGUGGCUGUGGCUAGACAGCG as the variant, how does the self-cleavage read?
A: 0.05

Q: Which self-cleavage does the source give for GGCAAAGCUCAAGACGGCGUUGCAAAGUGUCUUUGGCUAGGCUGCC here?
A: 0.01

Q: Which self-cleavage does the source give for GGCAGAGCUCAACACAGCGUGGCAAAGUGGGAGAGGCUAGACUGCA here?
A: 0.02

Q: For GAAAGAGCUCAACACAGCGUGGUAAGGUGGCUGUGGCUAGACUGCU, which self-cleavage is on record?
A: 0.53

Q: With GGCAGACCUCAACACAGCGUGGCACAGUGGCUGUGGCUAGAAUGCC as the variant, how does the self-cleavage read?
A: 0.03

Q: Which self-cleavage does the source give for GGCAGAGCUCAACACAACGUGGCAAAGUUGCUGUGGCCAGACUGCC here?
A: 0.02

Q: For GGCAGAGCUAAACACGGCGUGGCAAAGUGGCUGUGGCUUGACUGCC, which self-cleavage is on record?
A: 0.06

Q: With GGCAGAGCUCAAUACAUCGUGUGAAAGUGGCUGUGGUUAGACUGCC as the variant, how does the self-cleavage read?
A: 0.12

Q: With GGCAGAGUUCAACACAGCGUGGCAAAGGGGCUGUAGCUAGACCGCC as the variant, how does the self-cleavage read?
A: 0.93

Q: For GUCAUAGCUCAACACAGCGUGGCAAAAUGGCUGUGGCUAGAUCGCC, which self-cleavage is on record?
A: 0.02

Q: Which self-cleavage does the source give for GGCAGAUCUCAACACAGAGCGAUAAAGUGGCUGUGGCUAGACUGCC here?
A: 0.08

Q: For GGCAGGGCUCAACACAGCGUCGCAAAGUGGCUGUGGCUAGUCUGCC, which self-cleavage is on record?
A: 0.02

Q: Which self-cleavage does the source give for GGCAGAGUUAAACACAGCGUGGCAAAGUGGCUGUGACUAGACUGCC here?
A: 0.04

Q: For GGCAUAGCUCACCACAGCGUGGCAAAGUGGCUGUUGCUAGACUGCC, which self-cleavage is on record?
A: 0.01

Q: With GUCACAUCUCCACACAGCGUGGCAAAGUGGCUGUGGAUAGUGUGCC as the variant, how does the self-cleavage read?
A: 0.01

Q: For GGCAGAGCCCAACAGAGGGUGGCAAAGUGGCUGUGGCUAGACUGAC, which self-cleavage is on record?
A: 0.01

Q: For GGCAGAGCUCAACACAGCGUAGCAAAGUAGCUGUGGCUAGACUGCA, which self-cleavage is on record?
A: 1.59

Q: Which self-cleavage does the source give for GGCAGAGCUUAACACAGCGUGGCAAGGUGGCUAUGGCUAGACUGCC here?
A: 0.01

Q: With GGCAGAGCUCGACACAUCGUGGCAUAGUGGCUGUGGCAAGACUGCC as the variant, how does the self-cleavage read?
A: 0.01

Q: Which self-cleavage does the source give for GGCAGAGCUCAACACAGCGUGGCAAAGUGGCUCUGGCUAGAUUACC here?
A: 0.05

Q: With GGCAUAGCUCAACACAGCGUUGCAAAGUGGCUGUGGCUCGACUGCC as the variant, how does the self-cleavage read?
A: 0.03

Q: Which self-cleavage does the source give for GGCAGAUUUCAACACAGCGCGGAAAAGUGGCUGUGGCUAGACUGCC here?
A: 0.07

Q: For GGCACAUCUCAACACAGCGUGGCAAAGUGGCUGUGGCUUGACUGCC, which self-cleavage is on record?
A: 0.35

Q: For GGCAGAGCUCGACACAACGUGGCAAACUGGCUGUGGCUGGACUGCC, which self-cleavage is on record?
A: 0.02

Q: With GGCAGAGCUCAACACACGGCGGCAAAGUGGCUGUGGCUUGACUGCC as the variant, how does the self-cleavage read?
A: 0.01

Q: Which self-cleavage does the source give for GGCAGAGCUCAACACAGCGUGGCAGAGUGGCUGUGUCUAGACUGCA here?
A: 0.03

Q: For GACAGAGCUCACCAGAUCGUGGCAAAGUGGCUGUGGCUUGACUGCC, which self-cleavage is on record?
A: 0.06

Q: Which self-cleavage does the source give for GGCAGAGCUCAACACAGCGUGACAAACUGGUUGUGGCUAGACUGCC here?
A: 0.01

Q: For GGCAGAGCUCAACACUGAGAGGCAAAGUGGCGGUGGAUAGACUGCC, which self-cleavage is on record?
A: 0.03

Q: With GGCAGGGCUCAACAGAGCGUCGCAAAGUGGCCCUGGCUAGACUGCC as the variant, how does the self-cleavage read?
A: 0.01

Q: With GGCAGAGCUAAACACAGGGUGGCAAAGUGGCUUUGGCUAGACUGCC as the variant, how does the self-cleavage read?
A: 0.02

Q: With GGCAGAGCUUAACACAGCGUGGCAAAGUGGCUGUGGCUAAGCUGCC as the variant, how does the self-cleavage read?
A: 0.02

Q: Which self-cleavage does the source give for GGUAGGGCUCAACACAGCGUCGCAAAGUGGCUGUGGCUAGACUGCC here?
A: 0.05

Q: With GGUAGAGCUCAACACAGCGUGGCAAAGUGGCUGUGGCUAUACUCCC as the variant, how does the self-cleavage read?
A: 0

Q: For GGUAGAGCUCAACACACCGUGGCAAAGUGGCCGUGGCAAGACUGCC, which self-cleavage is on record?
A: 0.15

Q: For GGCAGAGCUCAACUCAGAGUCGCAAAGUGGCUGUGGCUAGACCGCC, which self-cleavage is on record?
A: 0.04

Q: For GGCAGUGCUCAACACAGCGUGGCAAAGUAGCUGAGUCUAGACUGCC, which self-cleavage is on record?
A: 0.07
